# The whole screen tested about 310,000 compounds, of which about 2,200 (0.71%) showed an effect of 50% or more. Effects have a minus sign here. The list shows a part of the results.
# Biological target: human ether-à-go-go-related gene (hERG) potassium channel (human, UniProt Q12809)
# Experiment: primary screen, population patch clamp on CHO cells stably expressing hERG
# Sequence of human ether-à-go-go-related gene (hERG) potassium channel (Q12809 whole entry, looked up): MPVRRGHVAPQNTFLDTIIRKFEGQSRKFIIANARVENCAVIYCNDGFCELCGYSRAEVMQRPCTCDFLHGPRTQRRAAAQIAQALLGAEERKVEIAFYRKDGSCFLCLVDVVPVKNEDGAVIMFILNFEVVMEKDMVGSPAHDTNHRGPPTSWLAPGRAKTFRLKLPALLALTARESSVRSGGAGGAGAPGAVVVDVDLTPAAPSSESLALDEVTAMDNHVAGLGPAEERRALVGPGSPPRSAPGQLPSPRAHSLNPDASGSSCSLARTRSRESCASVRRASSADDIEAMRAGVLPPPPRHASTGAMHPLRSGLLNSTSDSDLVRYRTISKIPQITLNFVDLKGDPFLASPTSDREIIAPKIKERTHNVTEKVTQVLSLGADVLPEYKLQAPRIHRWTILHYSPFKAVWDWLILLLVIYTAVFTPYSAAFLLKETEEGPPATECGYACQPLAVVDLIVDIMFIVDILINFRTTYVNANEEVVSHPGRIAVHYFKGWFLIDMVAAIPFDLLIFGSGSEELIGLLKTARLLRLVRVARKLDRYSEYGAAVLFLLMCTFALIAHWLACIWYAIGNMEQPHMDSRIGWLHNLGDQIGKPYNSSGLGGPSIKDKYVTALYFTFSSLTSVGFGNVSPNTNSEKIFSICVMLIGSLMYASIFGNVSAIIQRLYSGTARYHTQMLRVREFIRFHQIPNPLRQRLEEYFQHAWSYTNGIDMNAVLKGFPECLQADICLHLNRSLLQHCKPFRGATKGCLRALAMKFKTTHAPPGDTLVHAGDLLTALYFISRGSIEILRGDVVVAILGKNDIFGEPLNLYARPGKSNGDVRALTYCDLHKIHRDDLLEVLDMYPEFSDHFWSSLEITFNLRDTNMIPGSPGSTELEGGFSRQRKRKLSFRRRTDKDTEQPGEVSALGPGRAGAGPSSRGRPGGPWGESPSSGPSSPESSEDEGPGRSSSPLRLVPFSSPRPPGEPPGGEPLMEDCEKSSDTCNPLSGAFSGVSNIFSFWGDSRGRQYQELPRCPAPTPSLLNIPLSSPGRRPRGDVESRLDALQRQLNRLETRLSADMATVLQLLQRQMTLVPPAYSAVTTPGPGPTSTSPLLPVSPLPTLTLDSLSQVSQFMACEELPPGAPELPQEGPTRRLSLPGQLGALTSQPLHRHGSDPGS
row,Structure (SMILES),"hERG current change (%, negative = inhibition) at 1uM [%]"
1,CC(=O)Nc1ccc(NC(=O)c2c(-c3ccccc3Cl)noc2C)cc1,8.49
2,COc1ccc(/C=N/NC(=O)c2ccc(Br)cc2)c(OC)c1,10.1
3,Nn1c(SCC(=O)Nc2nccs2)nncc1=O,16.3
4,COc1ccccc1N1CCN(C(=S)Nc2cccc(C)c2)CC1,11
5,CCCCCCC(=O)Nc1nc(C)c(-c2csc(Nc3cc(Cl)ccc3OC)n2)s1,15.4
6,CCOC(=O)C1=C(c2ccccc2)N(C)C(=O)NC1c1ccc(O)c(OC)c1 (centres unmarked),14.3
7,O=C(CCc1ccccc1)Nc1cc2c(cc1Cl)OCCO2,-2.24
8,Cc1ccc2c(c1C)NC(=O)CC(c1ccccc1O)=N2,1.1
9,CCc1ccc(NC(=O)COC(=O)c2ccc(Cl)c(S(=O)(=O)N3CCCCCC3)c2)cc1,12
10,COc1ccc(CCC(=O)NC2CCCN(Cc3ccc(Cl)cc3)C2)cc1OC (centres unmarked),-20.5
11,COc1cccc(OC)c1C(=O)Nc1ccccc1C(=O)N1CCCCCC1,-1.21
12,CCOC(=O)c1sc(NC(=O)CSC(=S)N2CCOCC2)nc1C,10.1
13,O=C(Nc1ccc(S(=O)(=O)Nc2nccs2)cc1)c1cnc(Cl)c(Cl)c1,-2.91
14,O=C(CNC(=O)COc1ccccc1)NCc1cccnc1,10.9
15,COc1ccc(-c2sc3ccccc3c2C#CCCO)cc1,19.1
16,COC(=O)C1=C(NC(=O)C(C)(C)C)CCS1,10.7
17,CN(c1ccccc1)c1ccc([N+](=O)[O-])c2nonc12,14.5
18,Cc1cccc(C(=O)CC(=O)c2cc(Cl)ccc2O)c1,11.6
19,CC(C)(C)c1ccc(C(=O)O[C@H]2[C@H](Cc3ccccc3)NS(=O)(=O)[C@H]3C[C@@H]4C=C[C@]23O4)cc1,19.3
20,O=c1cc(CN2CCCCCC2)nc2sccn12,-8.88
21,O=C(CCc1nnc(Cc2cccc(C(F)(F)F)c2)o1)NCC(F)(F)F,7.14
22,OCCOCCn1c(CCNc2nc(-c3ccc(F)cc3)cs2)nc2cc(C(F)(F)F)ccc21,-8.32

row,Structure (SMILES),"hERG current change (%, negative = inhibition) at 1uM [%]"
1,Cc1ccccc1NC(=O)C1c2cccc[n+]2CC(=O)N1Cc1ccc2c(c1)OCO2.[I-] (centres unmarked),2.79
2,O=C(Cc1ccccc1[N+](=O)[O-])Nc1nccs1,-8.97
3,CC(C)NC(=S)N/N=C/c1cccnc1,14.3
4,CC1CCN(S(=O)(=O)c2ccc3c(c2)NC(=O)CS3)CC1,-13
5,Fc1ccc(COc2ccc(/C=N/n3cnnc3)cc2)cc1,-3.03
6,COC(=O)c1sccc1NC(=O)COc1ccccc1Cl,9.24
7,Cc1cc(C)c(S(=O)(=O)N2CCCCC2)c(C)c1N(C)S(=O)(=O)c1ccc(Cl)cc1,8.47
8,Nc1ccc(-c2nc3ccccc3o2)cc1,16.9
9,Brc1cc(Br)c2ncnc(N3CCCCC3)c2c1,7.96
10,Cc1c(N=Nc2c(O)n(C)c(=O)n(C)c2=O)c(=O)n(-c2ccccc2)n1C,6.63
11,CN(C)CCCN(C(=O)c1ccc(S(=O)(=O)N2CCCCCC2)cc1)c1nc2ccc(Br)cc2s1.Cl,8.04
12,O=C1NC[C@H](Cc2ccc(O)cc2)N(CC2CCCCC2)C1=O,15.2
13,C=C[C@@H]1c2ccccc2N(S(=O)(=O)c2ccc(C)cc2)[C@H](c2ccccc2)C1(C#N)C#N,14.5
14,Cc1[nH]nc2c1C1(CCC3(CC1)OCCO3)C(C#N)=C(N)O2,-3.1
15,CC(C)Oc1cccc(C(=O)C2CCCN(Cc3cnc(N4CCOCC4)s3)C2)c1 (centres unmarked),4.85
16,CC1(C)Cc2c(sc3c2c(=O)n(-c2cccc(Cl)c2)c(=O)n3CC(N)=O)CO1,10.2
17,CC(=O)NN=C1CCC(c2ccccc2)CC1 (centres unmarked),7.42
18,O=C(CCC(=O)Nc1ccc(Oc2ccccc2)cc1)NCCO,5.53
19,COc1ccc(CCNC(=O)C2(C)CCC(=O)N2Cc2ccc3c(c2)OCO3)cc1OC (centres unmarked),9.17
20,CCc1ccc(OCC(=O)Nc2ccc(S(=O)(=O)N3CCCC3)cc2)c(Br)c1,1.25
21,CCn1cc(CN2CCC(C(=O)Nc3ccc(Oc4cccnc4)cc3)CC2)cn1,2.13
22,COc1ccccc1CN1CC(C(=O)N2CCOCC2)CCC1=O (centres unmarked),10.2

# — article PMC4336329 (PLoS ONE, 2015)
